Consider 43 molecules from publication PMC4336329 (PLoS ONE, 2015).

Hit rate of the full screen: of about 310,000 compounds, about 2,200 (0.71%) showed an effect of 50% or more. The effect is printed as a negative number. This is one part of the list.

The assay deals with human ether-à-go-go-related gene (hERG) potassium channel (human, UniProt Q12809). Put plainly: primary screen, population patch clamp on CHO cells stably expressing hERG.
Chain of human ether-à-go-go-related gene (hERG) potassium channel (Q12809 whole entry, looked up): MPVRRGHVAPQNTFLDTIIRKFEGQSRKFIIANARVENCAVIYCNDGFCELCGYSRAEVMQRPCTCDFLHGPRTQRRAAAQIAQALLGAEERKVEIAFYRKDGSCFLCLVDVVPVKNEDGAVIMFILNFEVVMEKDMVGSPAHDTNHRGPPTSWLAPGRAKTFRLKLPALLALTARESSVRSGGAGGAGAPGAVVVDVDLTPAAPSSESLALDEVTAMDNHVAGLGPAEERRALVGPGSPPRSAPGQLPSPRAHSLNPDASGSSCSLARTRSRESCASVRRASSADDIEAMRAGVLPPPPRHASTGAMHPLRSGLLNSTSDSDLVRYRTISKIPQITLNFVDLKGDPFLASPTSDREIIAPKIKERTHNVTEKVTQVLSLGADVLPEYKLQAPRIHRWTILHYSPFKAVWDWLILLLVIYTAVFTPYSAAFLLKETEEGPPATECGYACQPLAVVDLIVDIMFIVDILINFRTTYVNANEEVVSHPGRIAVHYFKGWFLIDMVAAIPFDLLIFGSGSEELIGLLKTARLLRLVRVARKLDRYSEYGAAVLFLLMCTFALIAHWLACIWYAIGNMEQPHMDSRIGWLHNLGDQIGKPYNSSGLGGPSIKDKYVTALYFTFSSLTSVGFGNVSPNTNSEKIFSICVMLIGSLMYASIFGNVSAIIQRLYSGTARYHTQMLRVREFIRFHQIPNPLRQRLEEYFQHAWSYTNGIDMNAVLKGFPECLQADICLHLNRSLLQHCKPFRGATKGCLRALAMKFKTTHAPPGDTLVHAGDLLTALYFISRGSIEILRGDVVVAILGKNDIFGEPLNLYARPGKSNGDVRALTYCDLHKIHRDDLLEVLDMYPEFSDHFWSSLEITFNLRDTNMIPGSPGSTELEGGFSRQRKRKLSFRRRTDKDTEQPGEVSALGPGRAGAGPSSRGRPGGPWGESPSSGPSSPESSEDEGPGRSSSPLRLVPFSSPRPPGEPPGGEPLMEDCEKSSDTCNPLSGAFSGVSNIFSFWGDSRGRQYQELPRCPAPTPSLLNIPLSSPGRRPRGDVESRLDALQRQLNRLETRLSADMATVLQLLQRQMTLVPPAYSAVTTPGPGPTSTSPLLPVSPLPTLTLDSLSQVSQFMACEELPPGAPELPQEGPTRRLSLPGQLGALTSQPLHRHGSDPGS
`Cc1ccc(CNC(=O)c2ccc(Cn3nc(C)cc3C)o2)cc1`: the “hERG current change (%, negative = inhibition) at 1uM” value was -10.9%. With `COc1ccc(C)cc1NC(=O)Cc1c(C(=O)O)n(C)c2ccccc12`, the “hERG current change (%, negative = inhibition) at 1uM” value worked out at 17.6%.

Consider `CC(Nc1nc(C(F)(F)F)nc2ccccc12)c1cccs1` (stereo not shown), for which the “hERG current change (%, negative = inhibition) at 1uM” value was determined as 14.5%. As to `COc1ccccc1N(CC(=O)NC(C)(C)C)C(=O)C1CSC(=O)C1` (stereo not shown), the “hERG current change (%, negative = inhibition) at 1uM” value was 20.6%. With `COCCNC(=O)COc1ccc(C)c(C)c1` the figure was 0.248%; with `CC(C)c1ccc(N(CC(=O)N/N=C/c2ccc(OC3CSC3)cc2)S(=O)(=O)c2ccccc2)cc1`, 6.7%; with `Cc1cccc(NC(=O)Cn2c(=O)n(CCc3c[nH]c4ccccc34)c(=O)c3cccnc32)c1`, 14.6%. With `Cc1cc(N2CCC(C)CC2)c(F)cc1[N+](=O)[O-]` the figure was -2.8%.

For the molecule `CCOc1ccccc1NC(=O)CSc1ccc(-c2ccco2)nn1`, the “hERG current change (%, negative = inhibition) at 1uM” value came out at 9.91%. With `O=C(NNC(=S)Nc1ccc(Br)cc1)c1cccnc1` the figure was 8.63%; with `O=C(CSc1cccc2cccnc12)N/N=C/c1ccc(O)cc1`, -13.2%. For `Cc1ccc(CNC(=O)CCCNC(=O)c2ccc(Cl)cc2)n1C`, the “hERG current change (%, negative = inhibition) at 1uM” value stood at 10.7%.

On to `CC(C)N1CCN(c2ccc(OC[C@H]3CO[C@](Cn4cncn4)(c4ccc(Cl)cc4Cl)O3)cc2)CC1`, for which the “hERG current change (%, negative = inhibition) at 1uM” value turned out to be 6.93%. With `O=C(Nc1ccc(NC(=O)C23CC4CC(CC(C4)C2)C3)cn1)c1ccco1` the figure was 12.1%. Turning to `CCOC(=O)N1CCN(C(=O)COc2cccc3c2CCN(Cc2ccccc2F)C3=O)CC1`, the “hERG current change (%, negative = inhibition) at 1uM” value was -11.9%. With `COC(=O)C[C@H]1c2cc(F)cc(F)c2S(=O)(=O)N1C1CCN(Cc2ccccc2)CC1` the figure was -9.69%. With `CCOC(=O)CSc1nnc(CNC(=O)c2ccc([N+](=O)[O-])cc2)n1C` the figure was 3.61%; with `Cc1cc(C(=O)NC(C)C)on1`, 13.3%. For `Cc1cc2[nH]c(=O)c(=O)[nH]c2cc1S(=O)(=O)Nc1cccc(F)c1`, the “hERG current change (%, negative = inhibition) at 1uM” value came to 4.56%. For `CCOC(=O)CSc1nnc(-c2nnc(SCC(=O)OCC)n2CC)n1CC`, the “hERG current change (%, negative = inhibition) at 1uM” value is recorded as -8.65%. In the case of `O=C(NCCC(=O)N(CCc1ccccc1)Cc1ccccc1)c1ccc(Br)cc1`, the “hERG current change (%, negative = inhibition) at 1uM” value was -8.05%. With `CC(C)(CO)NC(=O)CC1C(=O)NCCN1CC(c1ccccc1)c1ccccc1` (stereo not shown) the figure was 4.15%.

As for `O=C(Cc1ccccc1)N[C@@H](Cc1ccccc1)c1nc2ccccc2[nH]1`, the “hERG current change (%, negative = inhibition) at 1uM” value worked out at 3.31%. With `Cc1cc(C)nc(-n2nc(C)c3c(C(F)F)cc(C)nc32)n1` the figure was 15.5%. With `O=C1C2C3C=CC([C@@H]2C(=O)N1c1nccs1)C31CC1` (stereo partly shown) the figure was 10.4%; with `Cc1cccc(NCc2cc(Cl)ccc2O)n1`, 12.2%. With `CCC(C)(C)NC(=O)C(c1ccc(OC)cc1)N(C(=O)CCC(=O)Nc1cc(C)on1)c1cc(OC)ccc1OC` (stereo not shown) the figure was 7.38%; with `Cc1cc(C)c(S(=O)(=O)N/N=C/c2ccc([N+](=O)[O-])o2)c(C)c1`, 16.1%; with `CCCCN(C)C(=O)c1nc2ccccn2c1CN1CCN(C/C=C/c2ccccc2)CC1`, -80.8%. As to `COC(=O)[C@H](CCSC)NC(=O)Cn1ccc(N)nc1=O`, the “hERG current change (%, negative = inhibition) at 1uM” value is listed as 11.8%. With `O=C(Cn1c(=S)[nH]c2ncccc2c1=O)NCCc1ccccc1` the figure was 15.6%. With `Cc1ccc(CONC(=O)c2ccc([N+](=O)[O-])cc2)cc1`, the “hERG current change (%, negative = inhibition) at 1uM” value turned out to be 1.83%. With `OCCN(Cc1nc(-c2ccc3c(c2)OCO3)no1)Cc1cccs1` the figure was 7.42%. With `CCOc1ncnc2c1sc1nc(C)cc(C)c12` the figure was 12.7%. For `COc1ccc2c(c1)O[C@H](c1ccc3c(c1)OCO3)[C@@H](O)C2=O`, the “hERG current change (%, negative = inhibition) at 1uM” value was 2.39%. Turning to `Cc1cccc(C2CC(c3ccccc3)Nc3nc(N)nn32)c1` (stereo not shown), the “hERG current change (%, negative = inhibition) at 1uM” value was 1.03%. With `COc1ccc(S(=O)(=O)N2Cc3ccccc3CC2C(=O)Nc2ccc3c(c2)OCO3)cc1` (stereo not shown) the figure was 9.56%; with `CCCNC(=O)N1CCN(S(=O)(=O)c2ccc(C)cc2)CC1`, 3.42%; with `CSc1ncccc1C(=O)Nc1cccc(S(=O)(=O)N(C)c2ccccc2)c1`, 2.83%. With `COc1cc(NC(=O)c2nnn(Cc3ccc(SC)cc3)c2N)cc(OC)c1`, the “hERG current change (%, negative = inhibition) at 1uM” value is on record as 0.634%. With `CCc1ccc2c(c1)C(=O)C(=O)N2CCS(=O)(=O)c1ccccc1` the figure was 12.4%.

Turning to `COC(=O)c1ccc(C(=O)OC)c(NS(=O)(=O)c2ccc(NC(C)=O)cc2)c1`, the “hERG current change (%, negative = inhibition) at 1uM” value came to 4.56%.

`O=C(O)c1ccccc1C(=O)Nc1c(-c2ccccc2)nc2ccccn12`: the “hERG current change (%, negative = inhibition) at 1uM” value is reported as 13.6%.
